Earlier results, collected in EP2150620B1, “Method for preparing C-6 phosphorylated D-aldohexoses and C-6 phosphorylated D-aldohexose derivatives, and new C-6 phosphorylated D-aldohexose derivatives” (Libragen, priority 2007, dated 2008).

Conditions: based on acute oral and inhalation data with rats; cited from earlier work

ClP(Cl)Cl [PCl3]
toxicity classification: highly toxic to mammals
